According to patent publication US20130072473A1, “COMPOUNDS FOR TREATING PROTEIN FOLDING DISORDERS” (PROTEOSTASIS THERAPEUTICS, INC., priority 2011, published 2013):
Some results were stated once for a whole list of compounds, not compound by compound.

The compounds below were run against T1, ΔF508-CFTR (Homo sapiens, UniProt P13569, DEL508-508) (assay: CFTR iodide flux assay (YFP quenching)). Conditions: 10 μM compound; CFBE41o− cells stably expressing ΔF508-CFTR and halide-sensitive YFP; stimulated 20 min with forskolin and test compounds; indirect measure of CFTR function.
T1 construct: expressed in transfected cells; host or cells: CFBE41o- cells
Format: cell-based

T1 sequence (P13569 with tags, fused parts or gaps DEL508-508): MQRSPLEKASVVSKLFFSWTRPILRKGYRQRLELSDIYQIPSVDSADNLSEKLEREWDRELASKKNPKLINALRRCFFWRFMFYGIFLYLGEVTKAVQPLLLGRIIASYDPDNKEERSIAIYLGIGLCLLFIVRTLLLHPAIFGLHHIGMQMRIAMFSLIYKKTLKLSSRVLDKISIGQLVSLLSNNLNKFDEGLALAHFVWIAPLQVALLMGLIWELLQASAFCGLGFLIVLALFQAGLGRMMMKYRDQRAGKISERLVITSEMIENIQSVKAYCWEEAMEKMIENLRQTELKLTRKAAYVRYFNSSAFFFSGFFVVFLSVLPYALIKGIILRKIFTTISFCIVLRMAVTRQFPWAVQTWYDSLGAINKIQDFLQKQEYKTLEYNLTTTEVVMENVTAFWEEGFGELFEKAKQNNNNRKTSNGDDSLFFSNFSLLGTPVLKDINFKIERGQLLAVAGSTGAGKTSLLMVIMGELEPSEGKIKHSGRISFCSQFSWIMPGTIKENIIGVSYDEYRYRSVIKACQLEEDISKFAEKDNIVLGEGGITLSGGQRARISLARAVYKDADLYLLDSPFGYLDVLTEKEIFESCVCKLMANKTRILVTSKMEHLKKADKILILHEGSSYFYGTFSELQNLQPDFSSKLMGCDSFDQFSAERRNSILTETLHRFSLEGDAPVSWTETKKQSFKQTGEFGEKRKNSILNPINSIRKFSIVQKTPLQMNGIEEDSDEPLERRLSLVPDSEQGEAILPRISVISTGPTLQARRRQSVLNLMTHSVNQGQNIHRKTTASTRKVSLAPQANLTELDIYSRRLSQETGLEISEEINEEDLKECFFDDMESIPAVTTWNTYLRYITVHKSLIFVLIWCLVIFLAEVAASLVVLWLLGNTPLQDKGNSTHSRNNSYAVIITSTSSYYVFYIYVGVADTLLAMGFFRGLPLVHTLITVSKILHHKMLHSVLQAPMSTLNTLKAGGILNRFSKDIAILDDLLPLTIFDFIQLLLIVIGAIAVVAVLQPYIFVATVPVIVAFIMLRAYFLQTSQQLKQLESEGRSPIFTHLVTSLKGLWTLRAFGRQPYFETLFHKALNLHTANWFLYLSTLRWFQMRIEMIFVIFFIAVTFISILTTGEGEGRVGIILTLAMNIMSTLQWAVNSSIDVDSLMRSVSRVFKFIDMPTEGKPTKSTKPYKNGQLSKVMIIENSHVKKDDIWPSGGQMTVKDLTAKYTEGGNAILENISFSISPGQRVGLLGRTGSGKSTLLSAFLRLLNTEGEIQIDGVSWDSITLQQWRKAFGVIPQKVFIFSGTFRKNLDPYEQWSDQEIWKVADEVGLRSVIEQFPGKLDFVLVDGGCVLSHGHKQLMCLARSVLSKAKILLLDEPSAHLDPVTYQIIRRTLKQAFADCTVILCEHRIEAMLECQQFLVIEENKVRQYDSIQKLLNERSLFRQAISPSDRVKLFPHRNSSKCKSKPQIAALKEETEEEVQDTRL

Compound	Percent Quenching of YFP at 10 μM [%]
CCN1CCc2c(sc(NC(C)=O)c2-c2nc3cc(C)ccc3s2)C1 [Example 14]	<15
CC[N+]1(CC)CCc2c(sc(NC(C)=O)c2-c2nc3ccccc3s2)C1 [Example 54, 2-Acetamido-3-(benzo[d]thiazol-2-yl)-6,6-diethyl-4,5,6,7-tetrahydrothieno[2,3-c]pyridin-6-ium Trifluoromethanesulfonate]	<15
CC(=O)Nc1sc2c(c1-c1nc3ccccc3s1)CCN(Cc1ccncc1)C2 [Example 24]	<15
CC(C)C(=O)Nc1sc2c(c1-c1nc3ccccc3s1)CCN(C)C2 [Example 41]	<15
CCC1CCc2c(sc(NC(C)=O)c2-c2nc3ccccc3s2)C1 (stereo not shown) [Example 66, N-(3-(Benzo[d]thiazol-2-yl)-6-ethyl-4,5,6,7-tetrahydrobenzo[b]thiophen-2-yl)acetamide]	<15
CCN1CCc2c(sc(NC(C)=O)c2-c2nc3cc(C(F)(F)F)ccc3s2)C1 [Example 11]	<15
CCN1CCc2c(sc(NC(C)=O)c2-c2nc3ccccc3s2)C1=O [Example 68, N-(3-(Benzo[d]thiazol-2-yl)-6-ethyl-7-oxo-4,5,6,7-tetrahydrothieno[2,3-c]pyridin-2-yl)acetamide]	<15
CCN1CCc2c(sc(NC(C)=O)c2-c2nc3ccccc3s2)C1 [Example 2, N-(3-(benzo[d]thiazol-2-yl)-6-ethyl-4,5,6,7-tetrahydrothieno[2,3-c]pyridin-2-yl)acetamide]	>20
CC(=O)Nc1sc2c(c1-c1nc3ccccc3s1)CCN(CC(F)(F)F)C2 [Example 19]	<15
Nc1sc2c(c1-c1nc3ccccc3s1)CCOC2 [Example 47, 3-(Benzo[d]thiazol-2-yl)-5,7-dihydro-4H-thieno[2,3-c]pyran-2-amine]	<15
CC(=O)Nc1sc2cnccc2c1-c1nc2ccccc2s1 [Example 55, N-(3-(Benzo[d]thiazol-2-yl)thieno[2,3-c]pyridin-2-yl)acetamide]	>20
CC(=O)Nc1sc2c(c1-c1nc3ccccc3s1)CCCC2 [Example 78, N-(3-(Benzo[d]thiazol-2-yl)-4,5,6,7-tetrahydrobenzo[b]thiophen-2-yl)acetamide]	<15
CC(=O)Nc1sc2c(c1-c1nc3ccccc3s1)CCN(Cc1ccccc1)C2 [Example 20]	<15
CC(=O)Nc1ccc2c(c1-c1nc3ccccc3s1)CCNC2 [Example 75, 6-acetamido-5-(benzo[d]thiazol-2-yl)-1,2,3,4-tetrahydroisoquinolin-2-ium 2,2,2-trifluoroacetate]	<15
CC(=O)Nc1cc2c(cc1-c1nc3ccccc3s1)CCNC2 [Example 73, 7-Acetamido-6-(benzo[d]thiazol-2-yl)-1,2,3,4-tetrahydroisoquinolin-2-ium 2,2,2-Trifluoroacetate]	<15
CC(=O)Nc1sc2c(c1-c1nc3ccccc3s1)CCN(C)C2 [Compound 4, N-(3-(Benzo[d]thiazol-2-yl)-6-methyl-4,5,6,7-tetrahydrothieno[2,3-c]pyridin-2-yl)acetamide]	>20
CCN1CCc2c(sc(N)c2-c2nc3ccccc3s2)C1 [Example 1, 3-(benzo[c]thiazol-2-yl)-6-ethyl-4,5,6,7-tetrahydrothieno[2,3-c]pyridin-2-amine]	<15
CC(=O)Nc1sc2c(c1-c1nc3cc(Cl)ccc3s1)CCNC2 [Example 8, 2-acetamido-3-(5-chlorobenzo[d]thiazol-2-yl)-4,5,6,7-tetrahydrothieno[2,3-c]pyridin-6-ium 2,2,2-trifluoroacetate]	<15
O=C(Nc1sc2c(c1-c1nc3ccccc3s1)CCNC2)C1CC1 [Example 32, 3-(Benzo[d]thiazol-2-yl)-2-(cyclopropanecarboxamido)-4,5,6,7-tetrahydrothieno[2,3-c]pyridin-6-ium 2,2,2-Trifluoroacetate]	<15
